According to publication PMC12136788:
This is one part of the list.

T1: UNK ZnF1-6 (called full-length) (human, UniProt Q9C0B0 30-357)
T1 sequence: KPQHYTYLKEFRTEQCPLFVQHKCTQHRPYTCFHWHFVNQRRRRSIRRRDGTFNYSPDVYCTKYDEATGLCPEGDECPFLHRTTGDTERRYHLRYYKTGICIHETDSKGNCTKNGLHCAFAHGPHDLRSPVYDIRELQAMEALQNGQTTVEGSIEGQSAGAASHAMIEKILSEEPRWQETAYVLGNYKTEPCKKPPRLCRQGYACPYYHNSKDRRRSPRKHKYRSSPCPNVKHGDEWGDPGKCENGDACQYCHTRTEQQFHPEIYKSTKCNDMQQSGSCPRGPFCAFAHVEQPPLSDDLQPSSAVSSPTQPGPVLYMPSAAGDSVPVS

B1: chr16:84129640:84129741:-|CDS|ENSG00000103160|unk|FALSE|unique (ssRNA)
RNA: GGGAGUUCUACAGUCCGACGAUCCUUGCAAUAUGAAUAUGCCUCUAAAGGAAUCUUUGUACAGAGUCUAAUCCCUUUCUAUGUAGCCACCAGCAUGACAGCACCCAGCAACUUUCUGCACAGGUGCUCGUGGUUGGUGCCUUCCAACAGAGGAUUGAGCAUCA
B2: chr11:8980169:8983969:-|three_prime_utr|ENSG00000175352|control|control|control (ssRNA)
RNA: GGGAGUUCUACAGUCCGACGAUCAAUUAUACUACAAAUCCACCCUUCCCCACACCCAGAGUUCAUCACCCCACAAAACUCUGUAGUGCACACAUCAGAAUGAGCAAUGGUGAUGCCACACAGAGUGGUAGGGAAAUGACUAGCCAACAGAGGAUUGAGCAUCA
B3: ENSG00000198589:be:win_1701|CDS|ENSG00000198589|bound_else_gene|NA|bound_elsewhere_windowed (ssRNA)
RNA: GGGAGUUCUACAGUCCGACGAUCAUUGUGUGAUCACGUUCUUCUUAAUCCUGCCAUAUGGAUUCAUACCCCAGCCAAGGUUCAACUGAUGCUCUAUACUUAUCUGUCCACGGAAUUCAUUGGUACAGUCAACAUAUAUAACACCAACAGAGGAUUGAGCAUCA
B4: chr6:43570573:43570674:-|CDS|ENSG00000124571|unk|total|mutant (ssRNA)
RNA: GGGAGUUCUACAGUCCGACGAUCGGUGCCGGAAACACAGACAGAAUUGGUGAUGUUUAUCCUUUUGCGACUGGCAGAGGAUGCCGUGACUUUUCAGACACUUCCCCCUCAAAGAAGAAGGGACAUCCAGCAAACAUUAACCCACAACAGAGGAUUGAGCAUCA
B5: chr12:39369705:39369875:-|CDS|ENSG00000139116|unk|total|mutant (ssRNA)
RNA: GGGAGUUCUACAGUCCGACGAUCGGGUAUUAUUUCUCGAGCUGUUAAACACCUUUUUAAGAGUAUUGAAGAAAAAAAACACACCGCAAUUAAAAAUGGGCUUCCUGCUCCAGAUUUUAAAGUGAAUGCCCAAUUCUCCGAGGUCAACAGAGGAUUGAGCAUCA
B6: chr13:30280108:30280219:-|CDS|ENSG00000102781|unk|total|mutant (ssRNA)
RNA: GGGAGUUCUACAGUCCGACGAUCUAAGGUUCGGCAGGAAUUAUUGGAGGAAUAUGAACAAGUUAAAAGUAUUGUCAGCACUUCCGAAAGUUUUAAAAUUGACAAGCCUCCAGAUUUCCCUGUGUCCUGUCAAGAUGAACCAUUCAACAGAGGAUUGAGCAUCA
B7: chr3:149738563:149738664:-|3pUTR|ENSG00000114744|unk|FALSE|unique (ssRNA)
RNA: GGGAGUUCUACAGUCCGACGAUCUGGAUUAUUAUGGGUCCUUGAUAAAUUCUCAAAGCCUUUUUUUUUGUUCAUCUCUAAAAUAGGAAUAUAGGAUUACCUACCACAUUGACUCGUAAGGACUAUAUGAGACCAUGUAUAUAGCAACAGAGGAUUGAGCAUCA
B8: chr17:66805439:66805473:+|3pUTR|ENSG00000154229|msi1_unk|total|mutant (ssRNA)
RNA: GGGAGUUCUACAGUCCGACGAUCCACAAUUGUGCUCUAUUUGUGCAGGUUCUUGUUUCUAAUCCUCUUUUCUAAUUAAGUUUCCGCUGAAUCCCUUGCUUCUGUGCUUUCCCUCCCUGCACAUGGGCACUGUAUCAGACCGAUCAACAGAGGAUUGAGCAUCA
B9: ENSG00000127914:stop:overlap|stop_codon|ENSG00000127914|stop_codon|NA|stop_codon (ssRNA)
RNA: GGGAGUUCUACAGUCCGACGAUCGGCAGCACCACAGUGCGAGACCCACAGCUCCCCUUUCUUUGAAAUUCUUUCACACUCAUUAGGAUAAUCAAAGCUUCCAGUUUAGUGCAUGAGCUAAUUAUUAAGUUAGCCAAAGCUUAACAACAGAGGAUUGAGCAUCA
B10: chr16:30026608:30026843:-|CDS|ENSG00000149926|control|control|control (ssRNA)
RNA: GGGAGUUCUACAGUCCGACGAUCGGUCAAAGGGCAUGGAGGGGACGACGGAGCGGCCAGAGCCCCGGGCAGCACGUGGGCCAUAGCGCGUGGCUACCUGCACAAGGAGUUCCUCAUGGUGCUCCACCAUGCCGCCAUGGUGCUCAACAGAGGAUUGAGCAUCA
B11: chr1:27823432:27823533:+|3pUTR|ENSG00000117758|unk|total|mutant (ssRNA)
RNA: GGGAGUUCUACAGUCCGACGAUCUUUCAAUAAAAUUACUGUCUUGUAAUAUAAAUGUUGUCCACUUCCCUUUUCCACAGGCCCCGAACAGUUAAAGGGAACAUAAUUUGUUCCGGCUCCCACAUAAAUGUGAAUCUGGCCAACCAACAGAGGAUUGAGCAUCA
B12: chr7:56101660:56101848:-|3pUTR|ENSG00000106153|msi1|FALSE|unique (ssRNA)
RNA: GGGAGUUCUACAGUCCGACGAUCUGGAGAGAUGGAAAAUCAGCUCUCAUAACUAAGUUAAUUUAGUAUAAAAAUAGAAUUGAUAGUGAGGGUAUAAAGUGUAACCAUCAGUUAAACCUCUCCUGUCAUUCCUGGCUUCCUUGCCAACAGAGGAUUGAGCAUCA
B13: chr11:74254050:74254151:+|3pUTR|ENSG00000214517|unk|total|mutant (ssRNA)
RNA: GGGAGUUCUACAGUCCGACGAUCUUGGAAGACCCAGAGAGGCCAAGAUCCCAUCCUCCGCCACCGCGAGCGGUGGUGGUGGACCGCAUCACAAGAAACGAGCCUGAAAAUCAGGUCCAGCCGGUCCAAGCACAUGGCCUCCCACAACAGAGGAUUGAGCAUCA
B14: chr10:59791032:59791133:-|3pUTR|ENSG00000108091|msi1|FALSE|unique (ssRNA)
RNA: GGGAGUUCUACAGUCCGACGAUCUAAUCAUAAUACAGUUCUCAGAUGCAGGGAAGAAGUUUGGCAUUUAAUCAUUGAGGCUUUAGGUUUUUGAUGUGAUCAGACUGGGCCAUGUCAAACCCGGAAUUUUCACCAACAGUUCACCAACAGAGGAUUGAGCAUCA
B15: chr5:149847740:149847841:+|3pUTR|ENSG00000155846|unk|total|mutant (ssRNA)
RNA: GGGAGUUCUACAGUCCGACGAUCAUUGAACAAAGCUGCUUCUGUCUGUGAGUUUCCAUGGUGUUGACGUUCCACUGCCACAUCCGUGUCCUCGCUUCCAACGGGUUGUCCCGGGUGCACCUCGAAGUGCCGGGUCCGUCACCCCAACAGAGGAUUGAGCAUCA
B16: chr16:16142165:16142266:+|3pUTR|ENSG00000103222|msi1|FALSE|unique (ssRNA)
RNA: GGGAGUUCUACAGUCCGACGAUCAUUGAUGUGGGGUAAAUAUUAAGGAGAUGGCCUCAUGGGAAUUUGACCUUGACUAGAAAUAGAGACUGAGAGUGAGCAACCAGCUGGAAGGUACUAUGCCAGUCCUAGCAGAAAAAUGUGCAACAGAGGAUUGAGCAUCA
B17: chr15:40903593:40903694:+|3pUTR|ENSG00000104142|msi1|FALSE|unique (ssRNA)
RNA: GGGAGUUCUACAGUCCGACGAUCCAGUAGAGGCCCUUCACCUGGAGAAGUCAGAAAUCUGACCCAAUUCCACCCCCUGCCUCUAGCACCUCUUCUGUCCCUGUCAUUCCCCACACACGUCCUGUUCACCUCGAGAGAGAGAGACAACAGAGGAUUGAGCAUCA
B18: chr7:139716074:139716127:-|CDS|ENSG00000064393|msi1_unk|FALSE|overlapping (ssRNA)
RNA: GGGAGUUCUACAGUCCGACGAUCGAAGCAAAACAAGUUUAGCCCCUUGCCCCUCAAAUACAUUCGCCCAGUUCUCCAGCAGGUAGCCACAGCCCUGAUGAAACUCAAAAGCCUAGGUCUUAUCCACGCUGACCUCAAACCAGACAACAGAGGAUUGAGCAUCA
B19: ENSG00000117868:stop:overlap|stop_codon|ENSG00000117868|stop_codon|NA|stop_codon (ssRNA)
RNA: GGGAGUUCUACAGUCCGACGAUCAAGGCUGGACCCAGUGGUAUGACCUCACGGAAGAUGGGACGAGGCCUCAGGCGAUGACAUAGCCGCAGCAGGCAGGAGGCGUCCUCUUCAGCGUAGCUCUCCACCUCUACCCGGAACACACAACAGAGGAUUGAGCAUCA
B20: ENSG00000070961:be:win_3451|CDS|ENSG00000070961|bound_else_gene|NA|bound_elsewhere_windowed (ssRNA)
RNA: GGGAGUUCUACAGUCCGACGAUCAGGAUAGAAGAUUCAGAGCCUCAUAUCCCCCUUAUUGAUGACACUGAUGCCGAAGAUGAUGCUCCUACAAAACGUAACUCCAGUCCUCCACCCUCUCCCAACAAAAAUAACAAUGCUGUUCAACAGAGGAUUGAGCAUCA
B21: chr2:48379045:48379146:+|3pUTR|ENSG00000170802|unk|total|mutant (ssRNA)
RNA: GGGAGUUCUACAGUCCGACGAUCCCUUAUCCUCUUUUCUGAUGCCGCAUAAAAAUUGUCCCGGUUUGAGUUAUAACUGCCAGCCGAUGACCAGUCACAAGUGAACCACUUCUCAGUUGCCAAUCUUUGCUCAUAUUAAAAACACAACAGAGGAUUGAGCAUCA
B22: chr9:24545423:24545649:-|CDS|ENSG00000205442|control|control|control (ssRNA)
RNA: GGGAGUUCUACAGUCCGACGAUCCCUGCCCCUCUCAGCCUUCCAUGGAGUCAAAGGCUGUUUAGAAUGUGACCCCAAAUUUAUAGAGGAUGUUGGCUCCUUGCUGGGAAAUCUGAUACCUUCAGAAGUCCCCGGCCGAACUCACAACAGAGGAUUGAGCAUCA

Molecular target: T1, UNK ZnF1-6 (called full-length)
Experiment: nsRBNS (natural sequence RNA bind-n-seq); RBNS binding buffer (assumed for nsRBNS): 25 mM Tris pH 7.5, 150 mM KCl, 3 mM MgCl2, 0.01% Triton X-100, 500 ug/ml BSA, 20 U/ml SUPERase-In, 4 C; UNK is unkempt and MSI1 is Musashi-1; names of the RNAs are library labels; protein concentration not given here; high values mean tight binding

Row | Binder | binding signal
1 | B1 | 0.376 enrichment R
2 | B2 | 0.663 enrichment R
3 | B3 | 0.246 enrichment R
4 | B4 | 0.586 enrichment R
5 | B5 | 0.575 enrichment R
6 | B6 | 0.259 enrichment R
7 | B7 | 0.645 enrichment R
8 | B8 | 1.54 enrichment R
9 | B9 | 0.757 enrichment R
10 | B10 | 0.969 enrichment R
11 | B11 | 0.523 enrichment R
12 | B12 | 0.888 enrichment R
13 | B13 | 0.402 enrichment R
14 | B14 | 0.681 enrichment R
15 | B15 | 0.672 enrichment R
16 | B16 | 0.81 enrichment R
17 | B17 | 0.779 enrichment R
18 | B18 | 0.979 enrichment R
19 | B19 | 0.843 enrichment R
20 | B20 | 0.813 enrichment R
21 | B21 | 0.459 enrichment R
22 | B22 | 0.901 enrichment R
